Reference: publication doi:10.1101/2025.09.25.678639, “The DND1–NANOS3 complex shapes the primordial germ cell transcriptome via a heptanucleotide sequence in mRNA 3′ UTRs”
These are yes or no findings as the source states them, for the method shown. In cells and extracts the contact can be indirect. Some binding calls cover weakened binding; strength is not graded here. For part of these data: Where a sequence is shown, tags or fusion partners need not be part of it.

Protein sequences, listed by entry. Tags and fused reporters are not part of them. Lines headed by an entry give the natural chain unless they say otherwise; changes in a name come on top.
UniProt P60323: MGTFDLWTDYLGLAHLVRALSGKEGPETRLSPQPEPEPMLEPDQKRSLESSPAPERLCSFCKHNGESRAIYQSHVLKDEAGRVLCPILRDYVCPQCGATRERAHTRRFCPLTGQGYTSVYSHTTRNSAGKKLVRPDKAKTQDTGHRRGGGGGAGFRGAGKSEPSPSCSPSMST
UniProt Q9ULM6: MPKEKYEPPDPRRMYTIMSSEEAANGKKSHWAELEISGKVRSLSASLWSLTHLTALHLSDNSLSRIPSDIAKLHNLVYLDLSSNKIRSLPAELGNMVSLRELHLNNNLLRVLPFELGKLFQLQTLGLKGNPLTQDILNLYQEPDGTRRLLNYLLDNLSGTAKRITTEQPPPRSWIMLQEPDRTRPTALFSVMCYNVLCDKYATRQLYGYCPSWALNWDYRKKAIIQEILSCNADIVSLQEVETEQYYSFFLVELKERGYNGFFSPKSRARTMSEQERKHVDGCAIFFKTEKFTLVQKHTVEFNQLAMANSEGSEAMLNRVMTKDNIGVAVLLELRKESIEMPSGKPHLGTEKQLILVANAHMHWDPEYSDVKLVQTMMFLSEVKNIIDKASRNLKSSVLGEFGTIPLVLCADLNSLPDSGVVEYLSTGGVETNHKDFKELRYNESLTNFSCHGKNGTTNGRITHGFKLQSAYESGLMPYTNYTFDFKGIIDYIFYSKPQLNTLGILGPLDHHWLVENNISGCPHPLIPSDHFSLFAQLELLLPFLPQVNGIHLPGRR

Columns and labels:
[1] = target: FH-DND1–NANOS3-VH complex (human) (UniProt Q8IYX4+P60323); assay: co-IP; tandem IP from 4SU-labelled, UV-crosslinked NANOS3-VH-P2A-FH-DND1 HEK293 cells; lysate treated with RNase T1; first IP on V5-agarose (NANOS3-VH), elution with V5 peptide, second IP on anti-FLAG M2 magnetic beads (FH-DND1); washes with NP-40 lysis buffer and 500 mM NaCl buffer; Western blot
[2] = target: C-terminally V5- and HA-tagged NANOS3 (human) (UniProt P60323); assay: co-IP; lysates of doxycycline-induced Flp-In T-REx HEK293 cells co-expressing NANOS3-VH-P2A-FH-DND1 (wild type, point mutants or deletions); mutant panel: IP with anti-V5 antibody (NANOS3), blot for co-immunoprecipitated DND1, two independent experiments
NANOS3-VH F108A (human) = NANOS3-VH F108A (human) (UniProt P60323); assay: as above
NANOS3-VH H63A (human) = NANOS3-VH H63A (human) (UniProt P60323); assay: as above
NANOS3-VH K77A (human) = NANOS3-VH K77A (human) (UniProt P60323); assay: as above
NANOS3-VH Y91A (human) = NANOS3-VH Y91A (human) (UniProt P60323); assay: as above

CNOT6 (from UniProt Q9ULM6 1-557)
binding [1]: binds

B1: FH-DND1 K196A (protein, UniProt Q8IYX4 1-353)
chain: MQSKRDCELWCERVNPENKAALEAWVRETGIRLVQVNGQRKYGGPPPGWVGSPPPAGSEVFIGRLPQDVYEHQLIPLFQRVGRLYEFRLMMTFSGLNRGFAYARYSSRRGAQAAIATLHNHPLRPSCPLLVCRSTEKCELSVDGLPPNLTRSALLLALQPLGPGLQEARLLPSPGPAPGQIALLKFSSHRAAAMAAKALVEGQSHLCGEQVAVEWLKPDLKQRLRQQLVGPFLRSPQPEGSQLALARDKLGFQGARATLQLLCQRMKLGSPVFLTKCLGIGPAGWHRFWYQVVIPGHPVPFSGLIWVVLTLDGRDGHEVAKDAVSVRLLQALSESGANLLWSAGAEAGTMVKQ
binding [2]: no binding

B2: FH-DND1 F61A (protein, UniProt Q8IYX4 1-353)
chain: MQSKRDCELWCERVNPENKAALEAWVRETGIRLVQVNGQRKYGGPPPGWVGSPPPAGSEVAIGRLPQDVYEHQLIPLFQRVGRLYEFRLMMTFSGLNRGFAYARYSSRRGAQAAIATLHNHPLRPSCPLLVCRSTEKCELSVDGLPPNLTRSALLLALQPLGPGLQEARLLPSPGPAPGQIALLKFSSHRAAAMAKKALVEGQSHLCGEQVAVEWLKPDLKQRLRQQLVGPFLRSPQPEGSQLALARDKLGFQGARATLQLLCQRMKLGSPVFLTKCLGIGPAGWHRFWYQVVIPGHPVPFSGLIWVVLTLDGRDGHEVAKDAVSVRLLQALSESGANLLWSAGAEAGTMVKQ
binding [2]: no binding

B3: FH-DND1 K197A (protein, UniProt Q8IYX4 1-353)
chain: MQSKRDCELWCERVNPENKAALEAWVRETGIRLVQVNGQRKYGGPPPGWVGSPPPAGSEVFIGRLPQDVYEHQLIPLFQRVGRLYEFRLMMTFSGLNRGFAYARYSSRRGAQAAIATLHNHPLRPSCPLLVCRSTEKCELSVDGLPPNLTRSALLLALQPLGPGLQEARLLPSPGPAPGQIALLKFSSHRAAAMAKAALVEGQSHLCGEQVAVEWLKPDLKQRLRQQLVGPFLRSPQPEGSQLALARDKLGFQGARATLQLLCQRMKLGSPVFLTKCLGIGPAGWHRFWYQVVIPGHPVPFSGLIWVVLTLDGRDGHEVAKDAVSVRLLQALSESGANLLWSAGAEAGTMVKQ
binding [2]: no binding

B4: N-terminally FLAG- and hemagglutinin (HA)-tagged DND1 (protein, UniProt Q8IYX4 1-353)
chain: MQSKRDCELWCERVNPENKAALEAWVRETGIRLVQVNGQRKYGGPPPGWVGSPPPAGSEVFIGRLPQDVYEHQLIPLFQRVGRLYEFRLMMTFSGLNRGFAYARYSSRRGAQAAIATLHNHPLRPSCPLLVCRSTEKCELSVDGLPPNLTRSALLLALQPLGPGLQEARLLPSPGPAPGQIALLKFSSHRAAAMAKKALVEGQSHLCGEQVAVEWLKPDLKQRLRQQLVGPFLRSPQPEGSQLALARDKLGFQGARATLQLLCQRMKLGSPVFLTKCLGIGPAGWHRFWYQVVIPGHPVPFSGLIWVVLTLDGRDGHEVAKDAVSVRLLQALSESGANLLWSAGAEAGTMVKQ
binding (NANOS3-VH F108A (human)): no binding | binding (NANOS3-VH H63A (human)): no binding | binding (NANOS3-VH K77A (human)): no binding | binding (NANOS3-VH Y91A (human)): no binding

B5: FH-DND1 Δ1-12 (domain or fragment, UniProt Q8IYX4 13-353)
chain: RVNPENKAALEAWVRETGIRLVQVNGQRKYGGPPPGWVGSPPPAGSEVFIGRLPQDVYEHQLIPLFQRVGRLYEFRLMMTFSGLNRGFAYARYSSRRGAQAAIATLHNHPLRPSCPLLVCRSTEKCELSVDGLPPNLTRSALLLALQPLGPGLQEARLLPSPGPAPGQIALLKFSSHRAAAMAKKALVEGQSHLCGEQVAVEWLKPDLKQRLRQQLVGPFLRSPQPEGSQLALARDKLGFQGARATLQLLCQRMKLGSPVFLTKCLGIGPAGWHRFWYQVVIPGHPVPFSGLIWVVLTLDGRDGHEVAKDAVSVRLLQALSESGANLLWSAGAEAGTMVKQ
binding [2]: no binding
